# A collection of fitness landscapes (doi:10.1016/j.celrep.2020.107928)
# In all, about 81,000 sequences were measured (“one-hybrid fitness for binding parS DNA”: median about -0.17, highest 2% from about 0.51 on). The list shows a part of the results.
# B1: Caulobacter ParB omega fusion; a variant is named by its letters at X, in order, B8GW30 (parent)
# chain: MESVVVGEPGMSEGRRGLGRGLSALLGEVDAAPAQAPGEQLGGSREAPIEILQRNPDQPRRTFREEDLEDLSNSIREKGVLQPILVRPSPDTAGEYQIVAGERAWRAAQRAGLKTVPIMVRELDDLAVLEIGIIENVQRADLNVLEEALSYKVLMEKFERTQENIAQTIGKSXSHVANXMRLLXLPDEVQSYLVSGELTAXHARAIAAAADPVALAKQIIEGGLSVRETEALARKAPNLSAGKSKGGRPPRVKDTDTQALESDLSSVLGLDVSIDHRGSTGTLTITYATLEQLDDLCNRLTRGI
# Variants of: B1
# Assay: one-hybrid fitness for binding parS DNA (scaled: cognate 1, non-cognate 0); higher = stronger binding
# Details: with parS DNA site
# How it was run: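 Fitness here means the log change in variant-to-wild-type read ratio between plasmids sequenced before and after selection. That scale was set so cognate equals 1 and non-cognate equals 0. The selection was a bacterial one-hybrid screen of Caulobacter ParB libraries, four specificity codons randomised, in E. coli USO carrying a HIS3 reporter with the site 19 bp from the promoter, grown 48 hours at 37°C on M9-minus-histidine with 0.1 mM IPTG and 5 mM 3-AT.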
row,Variant,one-hybrid fitness for binding parS DNA
1,CFIT,≤ 0.2
2,GFHG,≤ 0.2
3,TAIV,≤ 0.2
4,QEAP,≤ 0.2
5,RMDF,0.223
6,VAKF,≤ 0.2
7,QQLA,≤ 0.2
8,ITNS,≤ 0.2
9,HYDR,≤ 0.2
10,KKPR,≤ 0.2
11,HEWF,≤ 0.2
12,HKCM,≤ 0.2
13,GCGC,≤ 0.2
14,FYSW,≤ 0.2
15,TMII,≤ 0.2
16,TIKR,≤ 0.2
17,TTHC,≤ 0.2
18,YNPY,≤ 0.2
19,MEPH,0.346
20,LKEC,≤ 0.2
21,MWWA,≤ 0.2
22,LPYT,≤ 0.2
23,QSFL,≤ 0.2
24,SNAW,≤ 0.2
25,ADFC,≤ 0.2
26,CWSD,≤ 0.2

row,Variant,one-hybrid fitness for binding parS DNA
1,RMIG,0.947
2,EDSL,≤ 0.2
3,LQMM,≤ 0.2
4,YIDC,≤ 0.2
5,GMLI,≤ 0.2
6,GEQY,≤ 0.2
7,RMCH,0.262
8,PPQT,≤ 0.2
9,GTNA,≤ 0.2
10,HCMM,≤ 0.2
11,KNEP,≤ 0.2
12,MMTG,≤ 0.2
13,QMPE,≤ 0.2
14,NFNG,≤ 0.2
15,PMAN,≤ 0.2
16,FPNL,≤ 0.2
17,HDVT,≤ 0.2
18,MQQT,≤ 0.2
19,RIGA,0.661
20,FRYS,≤ 0.2
21,LPWA,≤ 0.2
22,HHSI,≤ 0.2
23,KLCT,≤ 0.2
24,LCIM,≤ 0.2
25,AYQF,≤ 0.2
26,QVKI,≤ 0.2

row,Variant,one-hybrid fitness for binding parS DNA
1,NLED,≤ 0.2
2,IKQM,≤ 0.2
3,QYCV,≤ 0.2
4,QIDL,≤ 0.2
5,WSIT,≤ 0.2
6,SFMR,≤ 0.2
7,IEAV,≤ 0.2
8,YYTT,≤ 0.2
9,RILD,≤ 0.2
10,GRSM,≤ 0.2
11,TFYD,≤ 0.2
12,FDNY,≤ 0.2
13,YIKT,≤ 0.2
14,QLRT,≤ 0.2
15,NREM,≤ 0.2
16,ALIE,≤ 0.2
17,ECRA,≤ 0.2
18,SGND,≤ 0.2
19,LHQG,≤ 0.2
20,AMPK,≤ 0.2
21,ETRT,≤ 0.2
22,PMHN,≤ 0.2
23,RCTM,0.345
24,LKTA,≤ 0.2
25,VPKL,≤ 0.2
26,MRGL,≤ 0.2

row,Variant,one-hybrid fitness for binding parS DNA
1,RFCQ,≤ 0.2
2,MPIT,≤ 0.2
3,WPPD,≤ 0.2
4,QHYS,≤ 0.2
5,MTVL,≤ 0.2
6,GMNW,≤ 0.2
7,QSWA,≤ 0.2
8,KQCT,≤ 0.2
9,LLRE,≤ 0.2
10,ELHR,≤ 0.2
11,QAPP,≤ 0.2
12,FGPR,≤ 0.2
13,QRPA,≤ 0.2
14,NYDG,≤ 0.2
15,GGDN,≤ 0.2
16,RARF,0.28
17,QRNK,≤ 0.2
18,PSPA,≤ 0.2
19,ARQE,≤ 0.2
20,DTGW,≤ 0.2
21,RTQE,≤ 0.2
22,QIIF,≤ 0.2
23,NPWK,≤ 0.2
24,DAFS,≤ 0.2
25,YDPP,≤ 0.2
26,KSIR,≤ 0.2

row,Variant,one-hybrid fitness for binding parS DNA
1,APLA,≤ 0.2
2,LKRR,≤ 0.2
3,NFTS,≤ 0.2
4,RWDI,≤ 0.2
5,SIES,≤ 0.2
6,PYML,≤ 0.2
7,ASNF,≤ 0.2
8,TCEI,≤ 0.2
9,GHGS,≤ 0.2
10,SYNC,≤ 0.2
11,PDVC,≤ 0.2
12,QCVC,≤ 0.2
13,GRFS,≤ 0.2
14,RGHA,0.238
15,IARD,≤ 0.2
16,QRNF,≤ 0.2
17,RYHT,0.889
18,LHAE,≤ 0.2
19,VSRK,≤ 0.2
20,LMEY,≤ 0.2
21,TDHP,≤ 0.2
22,NHFV,≤ 0.2
23,NDMY,≤ 0.2
24,PYNW,≤ 0.2
25,QRWL,≤ 0.2
26,PVCG,≤ 0.2

row,Variant,one-hybrid fitness for binding parS DNA
1,IFLC,≤ 0.2
2,QTIA,≤ 0.2
3,FITT,≤ 0.2
4,TIKP,≤ 0.2
5,IECV,≤ 0.2
6,EPRY,≤ 0.2
7,QNYV,≤ 0.2
8,KWSA,≤ 0.2
9,CYET,≤ 0.2
10,CPNS,≤ 0.2
11,LCCE,≤ 0.2
12,VQEA,≤ 0.2
13,TQQT,≤ 0.2
14,SMGS,≤ 0.2
15,EDPS,≤ 0.2
16,KVHM,≤ 0.2
17,TNTL,≤ 0.2
18,NINK,≤ 0.2
19,VKCS,0.262
20,GDYT,≤ 0.2
21,SRLM,≤ 0.2
22,RQFQ,≤ 0.2
23,YRKM,≤ 0.2
